Measurements reported in the supplement of paper PMC8728848.
This is one part of the list.

Legend:
Assay in all cases: glycan array binding signal (z-score within array); higher = stronger binding
Settings in all cases: glycan notation: IUPAC condensed, linker removed
Fuc(a1-2)Gal = target: Fuc(a1-2)Gal
How it was run: (§1)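 The Consortium for Functional Glycomics database supplied 3228 glycan arrays, of which those lacking an available protein sequence were dropped. The binding signal, a within-array Z-score, was averaged across arrays of the same protein sequence and across linkers. Negative scores can be read as non-binding.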

Fuc(a1-2)Gal(b1-3)GalNAc = target: Fuc(a1-2)Gal(b1-3)GalNAc
How it was run: as §1

[1] = target: Fuc(a1-2)Gal(b1-3)GalNAc(a1-3)[Fuc(a1-2)]Gal(b1-4)Glc
How it was run: as §1

[2] = target: Fuc(a1-2)Gal(b1-3)GalNAc(a1-3)[Fuc(a1-2)]Gal(b1-4)GlcNAc
How it was run: as §1

[3] = target: Fuc(a1-2)Gal(b1-3)GalNAc(b1-3)Gal
How it was run: as §1

[4] = target: Fuc(a1-2)Gal(b1-3)GalNAc(b1-3)Gal(a1-4)Gal(b1-4)Glc
How it was run: as §1

[5] = target: Fuc(a1-2)Gal(b1-3)GalNAc(b1-4)[Neu5Ac(a2-3)]Gal(b1-4)Glc
How it was run: as §1

Fuc(a1-2)Gal(b1-3)GlcNAc = target: Fuc(a1-2)Gal(b1-3)GlcNAc
How it was run: as §1

[6] = target: Fuc(a1-2)Gal(b1-3)GlcNAc(b1-2)Man(a1-3)[Fuc(a1-2)Gal(b1-3)GlcNAc(b1-2)Man(a1-6)]Man(b1-4)GlcNAc(b1-4)GlcNAc
How it was run: as §1

[7] = target: Fuc(a1-2)Gal(b1-3)GlcNAc(b1-2)Man(a1-3)[Fuc(a1-2)Gal(b1-3)GlcNAc(b1-2)Man(a1-6)]Man(b1-4)GlcNAc(b1-4)[Fuc(a1-6)]GlcNAc
How it was run: as §1

[8] = target: Fuc(a1-2)Gal(b1-3)GlcNAc(b1-3)Gal(b1-4)Glc
How it was run: as §1

[9] = target: Fuc(a1-2)Gal(b1-3)GlcNAc(b1-3)GalNAc
How it was run: as §1

[10] = target: Fuc(a1-2)Gal(b1-3)GlcNAc(b1-3)[Fuc(a1-2)Gal(b1-3)GlcNAc(b1-6)]GalNAc
How it was run: as §1

[11] = target: Fuc(a1-2)Gal(b1-3)GlcNAc(b1-3)[Gal(b1-4)GlcNAc(b1-6)]Gal(b1-4)Glc
How it was run: as §1

[12] = target: Fuc(a1-2)Gal(b1-3)GlcNAc(b1-3)[Neu5Ac(a2-6)Gal(b1-4)GlcNAc(b1-6)]Gal(b1-4)Glc
How it was run: as §1

[13] = target: Fuc(a1-2)Gal(b1-3)GlcNAc6S
How it was run: as §1

[14] = target: Fuc(a1-2)Gal(b1-3)[Fuc(a1-4)]GlcNAc
How it was run: as §1

[15] = target: Fuc(a1-2)Gal(b1-3)[Fuc(a1-4)]GlcNAc(b1-2)Man(a1-3)[Fuc(a1-2)Gal(b1-3)[Fuc(a1-4)]GlcNAc(b1-2)Man(a1-3)]Man(b1-4)GlcNAc(b1-4)GlcNAc
How it was run: as §1

[16] = target: Fuc(a1-2)Gal(b1-3)[Fuc(a1-4)]GlcNAc(b1-2)Man(a1-3)[Fuc(a1-2)Gal(b1-3)[Fuc(a1-4)]GlcNAc(b1-2)Man(a1-6)]Man(b1-4)GlcNAc(b1-4)[Fuc(a1-6)]GlcNAc(b1-4)[Fuc(a1-6)]GlcNAc
How it was run: as §1

[17] = target: Fuc(a1-2)Gal(b1-3)[Fuc(a1-4)]GlcNAc(b1-3)[Fuc(a1-3)[Gal(b1-4)]GlcNAc(b1-6)]Gal(b1-4)Glc
How it was run: as §1

[18] = target: Fuc(a1-2)Gal(b1-3)[Fuc(a1-4)]GlcNAc(b1-3)[Gal(b1-4)GlcNAc(b1-6)]Gal(b1-4)Glc
How it was run: as §1

[19] = target: Fuc(a1-2)Gal(b1-4)Fuc(a1-3)]GlcNAc(b1-2)Man(a1-3)[Fuc(a1-2)Gal(b1-4)[Fuc(a1-3)]GlcNAc(b1-2)Man(a1-6)]Man(b1-4)GlcNAc(b1-4)GlcNAc
How it was run: as §1

Fuc(a1-2)Gal(b1-4)Glc = target: Fuc(a1-2)Gal(b1-4)Glc
How it was run: as §1

Fuc(a1-2)Gal(b1-4)Glc6S = target: Fuc(a1-2)Gal(b1-4)Glc6S
How it was run: as §1

Fuc(a1-2)Gal(b1-4)GlcNAc = target: Fuc(a1-2)Gal(b1-4)GlcNAc
How it was run: as §1

[20] = target: Fuc(a1-2)Gal(b1-4)GlcNAc(b1-2)Man
How it was run: as §1

[21] = target: Fuc(a1-2)Gal(b1-4)GlcNAc(b1-2)Man(a1-3)[Fuc(a1-2)Gal(b1-4)GlcNAc(b1-2)Man(a1-6)]Man(b1-4)GlcNAc(b1-4)GlcNAc
How it was run: as §1

[22] = target: Fuc(a1-2)Gal(b1-4)GlcNAc(b1-2)Man(a1-3)[Fuc(a1-2)Gal(b1-4)GlcNAc(b1-2)Man(a1-6)]Man(b1-4)GlcNAc(b1-4)[Fuc(a1-6)]GlcNAc
How it was run: as §1

[23] = target: Fuc(a1-2)Gal(b1-4)GlcNAc(b1-2)[Fuc(a1-2)Gal(b1-4)GlcNAc(b1-4)]Man(a1-3)[Fuc(a1-2)Gal(b1-4)GlcNAc(b1-2)Man(a1-6)]Man(b1-4)GlcNAc(b1-4)GlcNAc
How it was run: as §1

[24] = target: Fuc(a1-2)Gal(b1-4)GlcNAc(b1-3)Gal(b1-4)GlcNAc
How it was run: as §1

B1: InvD YPIII (Yersinia pseudotuberculosis), B1JSC0 (protein)
chain: MIKYFSFFKKPEPIVGILPNRQSHHILPTHIRRVAWGTLLLQLFIPLSVSFSPAIAAMKASKADTMVSYSSTEPYVLGSGETVAMVAKKYGITVDELKKINIYRTFSRPFTALTTGDEIDIPRKASPFSVDNNKDNRLSVENTLAGHAVAGATALSNGDVAKSGERMVRSAASNEFNNSAQQWLSQFGTARVQLNINDDFHLDGSAADVLIPLYDNEKSILFTQLGARNKDSRNTVNMGAGVRTFQGNWMYGANTFFDNDLTGKNRRIGVGAEAWTDYLKLSANNYFGITDWHQSRDFIDYNERPANGYDLRAEAYLPSYPQLGGKAMYEKYRGDDVALFGKDNRQKNPHAITAGVNYTPIPLVTIGAEHRAGKGGQNDSNINFQLNYRLGETWQSHIDPSAVAASRTLAGSRYDLVERNNHIVLDYQKQNLVRLSLPDSLAGDPFSQLSVTAQVTATHGLERIDWQSAELMAAGGVLKQTSKNGLEITLPEYQMNRTGGNSYILNAIAYDTQGNASSQASMLITVNAQKINIANSTLVAVPINIEANNSDTSVVTLTLKDDNNIPVTGQDVTFLSPLGTLSAMTDSGNGVYTATLTAGTVSGTTAVSSNINGSALDMTPATVTLNGNSGELSITHSMLVAAPVNIEANGSDTSVVTLTLRDSNNNPVTGQTVTFAGTLGTLGAVTEGSSGVYTATLTAGIMVGTSSITASVNSTALGVTPATVTLNGDSGNLSTTNSTLVAAPVNIEANSSDTSVVTLTLRDNNNNPVTGQTVVFTSTLGTLGNVTEQASGVYTATLTAGTVSGVASLSVSVGGNALGVTPATVTLNGDSGNLSTTNSTLVAAPVNIEANSSDTSVVTLTLRDNNNNPVTGQTVNFAGTLGTLGTVSEGSSGVYTTTLTAGTVAGVASLSVNVGGNALGVTPATVTLNGNSGNLSATNSTLVAAPVNIEANSSDTSVVTLTLRDNNNNPVTGQTVAFTSTLGTLGNVTEQASGVYTATLTAGTVSGVASLSVSVNSNALGVTPATVTLNGDSGNLSTTNSTLVAAPVNIEANSSDTSVVTLTLRDNNNNPVTGQTVAFTSTLGTLGNVTEQASGLYTATLTAGTVSGVASLSVNVGGNALGVTPATVTLNGDSGNLSATNSTLVAAPVNIEANSSDTSVVTLTLRDNNNNPVTGQTVAFTSTLGTLGNVTEQASGLYTATLTAGTVSGVASLSVNVGGTALGVTPATVTLNGDSGNLSTTNSTLVAAPVNIEANSSDTSVVTLTLRDNNNNPVTGQTVAFTSTLGTLGNVTEQASGLYTATLTAGTVSGVASLSVSVNSTALGVTPATVTLNGDSGNLSTTNSTLVAAPVNIEANSSDTSVVTLTLRDNNNNPVTGQTVAFTSTLGTLGNVTEQASGVYTATLTAGTVAGVASLSVNVGGNALGVTPATVTLNGDSGNLSTTNSTLVAAPVNIEANSSDTSVVTLTLRDNNNNPVTGQTVAFTSTLGTLGNVTEQASGVYTATLTAGTVSGVASLSVSVGSSALGVTPATVTLNGDSGNLSTTNSTLVAAPVNIEANNSDTSVVTLTLRDNNNNPVTGQTVAFTSTLGTLGNVTEQASGVYTATLTAGTVSGVASLSVSVNSNALGVTPATVTLNGDSGNLSTTNSTLVAAPVNIEANSSDTSVVTLTLRDNNNNPVTGQTVVFTSTLGTLGNVTEQASGLYTATLTAGTVSGVASLSVSVGGNALGVTGNITLAPGALDAARSILAVNKPSINADDRIGSTITFTAQDAQGNAITGLDIAFMTDLENSQIMTLVDHNDGTYTANINGTQTGIANIAVQSSGATIAGLAATMVTITPGAWNTTQATPVMTVALPITTCQSSSGVYKRYYIGIVTHELYDNYGNEISGILTYNLGAGRYTTVTSQNSSVSGSNGLTRRSNSPVSHFILTSDAYTSQAACYAERIANVNVTITVTAITDDFKTSAVNKVFILGTGSN
glycan array binding signal (z-score) (Fuc(a1-2)Gal): -0.299
glycan array binding signal (z-score) (Fuc(a1-2)Gal(b1-3)GalNAc): -0.203
glycan array binding signal (z-score) [1]: -0.195
glycan array binding signal (z-score) [2]: -0.404
glycan array binding signal (z-score) [3]: -0.304
glycan array binding signal (z-score) [4]: -0.14
glycan array binding signal (z-score) [5]: -0.15
glycan array binding signal (z-score) (Fuc(a1-2)Gal(b1-3)GlcNAc): -0.32
glycan array binding signal (z-score) [6]: 0.001
glycan array binding signal (z-score) [7]: 0.675
glycan array binding signal (z-score) [8]: -0.25
glycan array binding signal (z-score) [9]: -0.26
glycan array binding signal (z-score) [10]: 0.095
glycan array binding signal (z-score) [11]: -0.265
glycan array binding signal (z-score) [12]: -0.231
glycan array binding signal (z-score) [13]: -0.04
glycan array binding signal (z-score) [14]: -0.291
glycan array binding signal (z-score) [15]: 0.493
glycan array binding signal (z-score) [16]: -0.034
glycan array binding signal (z-score) [17]: -0.437
glycan array binding signal (z-score) [18]: 0
glycan array binding signal (z-score) [19]: 1.36
glycan array binding signal (z-score) (Fuc(a1-2)Gal(b1-4)Glc): -0.256
glycan array binding signal (z-score) (Fuc(a1-2)Gal(b1-4)Glc6S): -0.048
glycan array binding signal (z-score) (Fuc(a1-2)Gal(b1-4)GlcNAc): -0.154
glycan array binding signal (z-score) [20]: -0.164
glycan array binding signal (z-score) [21]: 0.511
glycan array binding signal (z-score) [22]: 0.037
glycan array binding signal (z-score) [23]: 0.402
glycan array binding signal (z-score) [24]: -0.407
